Measured values published in PMC7794930.
No constants are given. Whether binding was seen depends on the method and setting. In cells and extracts the contact can be indirect. Some results given as binding are weak or reduced against the parent protein; the word gives no strength. Where a sequence is shown, tags or fusion partners need not be part of it.

How the values were obtained:
[1] = target: T1, Sec21-GFP (COPI coat subunit Sec21, yeast γ-COP, tagged with GFP) (S. cerevisiae) (UniProt P32074); assay: co-IP; total lysate and S13, P13, S100 and P100 fractions of differential centrifugation, each immunoprecipitated for Sec21-GFP and blotted for HA
T1 sequence: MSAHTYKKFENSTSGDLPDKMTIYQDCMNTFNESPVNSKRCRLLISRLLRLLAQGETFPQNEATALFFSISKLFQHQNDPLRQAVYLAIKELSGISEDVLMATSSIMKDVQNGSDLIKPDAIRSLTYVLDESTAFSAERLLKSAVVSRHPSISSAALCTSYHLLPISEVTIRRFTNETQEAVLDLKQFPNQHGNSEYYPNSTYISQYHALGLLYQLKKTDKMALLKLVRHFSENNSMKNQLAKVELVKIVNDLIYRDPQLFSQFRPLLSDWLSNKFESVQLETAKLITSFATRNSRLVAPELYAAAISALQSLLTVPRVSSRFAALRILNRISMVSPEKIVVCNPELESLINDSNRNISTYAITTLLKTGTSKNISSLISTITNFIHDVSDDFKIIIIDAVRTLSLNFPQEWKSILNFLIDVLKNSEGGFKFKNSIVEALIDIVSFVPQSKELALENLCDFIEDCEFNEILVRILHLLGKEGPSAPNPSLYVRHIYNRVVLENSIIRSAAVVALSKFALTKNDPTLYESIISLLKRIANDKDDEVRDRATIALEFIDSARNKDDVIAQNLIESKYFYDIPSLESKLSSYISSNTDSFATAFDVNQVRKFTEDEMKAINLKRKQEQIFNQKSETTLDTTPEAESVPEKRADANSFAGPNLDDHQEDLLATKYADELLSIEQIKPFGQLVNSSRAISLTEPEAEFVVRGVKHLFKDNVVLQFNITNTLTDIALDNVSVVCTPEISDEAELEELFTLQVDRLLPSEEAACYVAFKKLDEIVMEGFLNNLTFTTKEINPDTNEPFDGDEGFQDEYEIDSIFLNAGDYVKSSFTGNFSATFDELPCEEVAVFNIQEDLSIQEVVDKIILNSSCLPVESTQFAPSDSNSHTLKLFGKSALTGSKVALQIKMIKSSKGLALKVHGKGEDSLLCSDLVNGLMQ

[2] = target: T1, Sec21-GFP (COPI coat subunit Sec21, yeast γ-COP, tagged with GFP) (S. cerevisiae); assay: co-IP; native co-IP of GFP- or CFP-tagged bait with GFP-Trap_A (3 h, 4 °C) from S13 enriched-Golgi fraction solubilized with 1% Triton X-100 in HEPES buffer (20 mM HEPES pH 7.2, 100 mM KCl, 5 mM MgCl2); immunoblot; wild-type, emp24Δ, or erg6Δ cells with or without 100 µg/mL BFA
[3] = target: T2, Emp24-CFP (p24 complex subunit) (S. cerevisiae) (UniProt P32803); assay: as above
T2 sequence: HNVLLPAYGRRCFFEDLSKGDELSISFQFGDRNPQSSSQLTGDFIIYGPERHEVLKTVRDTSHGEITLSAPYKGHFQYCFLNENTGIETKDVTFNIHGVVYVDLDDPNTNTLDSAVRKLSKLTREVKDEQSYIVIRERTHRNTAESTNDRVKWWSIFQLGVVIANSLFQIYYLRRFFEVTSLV

B1: HA-Gea1 (full-length, 5xHA-GEA1) (protein, UniProt P47102 1-1408)
chain: MHDVPMETVLAVNPATMIVKECINLCSAMNKQSRDKSQTSVAALLGGGSDIFLSQSDSFVDSFHNLPTSSYHDPLISGLVQLRLKINDLKGLDSLNALELLKPFLEIVSASSVSGYTTSLALDSLQKVFTLKIINKTFNDIQIAVRETVVALTHCRFEASKQISDDSVLLKVVTLLRDIITSSFGDYLSDTIIYDVLQTTLSLACNTQRSEVLRKTAEVTIAGITVKLFTKLKLLDPPTKTEKYINDESYTDNNLKDDIIGTTTSDNDLSSTDDDSAVADDNKNEKPVQQVIREQENDEETAEKAENVEPNYGITVIKDYLGLLLSLVMPENRMKHTTSAMKLSLQLINAAIEISGDKFPLYPRLFSLISDPIFKSVLFIIQSSTQYSLLQATLQLFTSLVVILGDYLPMQIELTLRRIFEILEDTTISGDVSKQKPPAIRELIIEQLSILWIHSPAFFLQLFVNFDCNLDRSDLSIDFIKELTKFSLPAAAVNTSNNIPPICLEGVLSLIENIYNDLQRFDRAEFVKNQKEIDILKQRDRKTEFILCVETFNEKAKKGIQMLIEKGFIDSDSNRDIASFLFLNNGRLNKKTIGLLLCDPKKTSLLKEFIDLFDFKGLRVDEAIRILLTKFRLPGESQQIERIVEAFSSKYSADQSNDKVELEDKKAGKNGSESMTEDDIIHVQPDADSVFVLSYSIIMLNTDSHNPQVKDHMTFDDYSNNLRGCYNGKDFPRWYLHKIYTSIKVKEIVMPEEHHGNERWFEDAWNNLISSTSVMTEMQRDFTNPISKLAQIDILQYEKAIFSNVRDIILKTLFKIFTVASSDQISLRILDAISKCTFINYYFSFDQSYNDTVLHLGEMTTLAQSSAKAVELDVDSIPLVEIFVEDTGSKISVSNQSIRLGQNFKAQLCTVLYFQIIKEISDPSIVSTRLWNQIVQLILKLFENLLMEPNLPFFTNFHSLLKLPELPLPDPDISIRKAKMSRSLLSTFASYLKGDEEPSEEDIDFSIKAFECVKASHPLSSVFENNQLVSPKMIETLLSSLVIEKTSENSPYFEQELLFLLEISIILISEASYGQEFGALIADHMINISNLDGLSKEAIARLASYKMFLVSRFDNPRDILSDLIEHDFLVKNEIFNTKYYESEWGKQVINDLFTHLNDVKYNERALKNVKFWNFLRILISAKDRQFAVYTFLEKYIQNGDIFVDDGNFMNILSLLDEMSCAGAVGTKWEQNYENSVEDGCEAPESNPYRSIIDLSSRSINITADLLSTVGRSNSALNKNEIIAAIQGLAHQCLNPCDELGMQALQALENILLSRASQLRTEKVAVDNLLETGLLPIFELDEIQDVKMKRITSILSVLSKIFLGQLVEGVTSNETFLRVLNVFNKYVDDPTVERQLQELIISKREIEKE
binding [1]: binds | binding [2]: binds

B2: Emp24 (endogenous, p24 complex subunit) (protein, UniProt P32803 21-203)
chain: HNVLLPAYGRRCFFEDLSKGDELSISFQFGDRNPQSSSQLTGDFIIYGPERHEVLKTVRDTSHGEITLSAPYKGHFQYCFLNENTGIETKDVTFNIHGVVYVDLDDPNTNTLDSAVRKLSKLTREVKDEQSYIVIRERTHRNTAESTNDRVKWWSIFQLGVVIANSLFQIYYLRRFFEVTSLV
binding [2]: binds

B3: HA-Gea1ΔCOPI (HA-Gea1 lacking residues 434–521) (protein, UniProt P47102)
chain: MHDVPMETVLAVNPATMIVKECINLCSAMNKQSRDKSQTSVAALLGGGSDIFLSQSDSFVDSFHNLPTSSYHDPLISGLVQLRLKINDLKGLDSLNALELLKPFLEIVSASSVSGYTTSLALDSLQKVFTLKIINKTFNDIQIAVRETVVALTHCRFEASKQISDDSVLLKVVTLLRDIITSSFGDYLSDTIIYDVLQTTLSLACNTQRSEVLRKTAEVTIAGITVKLFTKLKLLDPPTKTEKYINDESYTDNNLKDDIIGTTTSDNDLSSTDDDSAVADDNKNEKPVQQVIREQENDEETAEKAENVEPNYGITVIKDYLGLLLSLVMPENRMKHTTSAMKLSLQLINAAIEISGDKFPLYPRLFSLISDPIFKSVLFIIQSSTQYSLLQATLQLFTSLVVILGDYLPMQIELTLRRIFEILEDTTISGDVSDRAEFVKNQKEIDILKQRDRKTEFILCVETFNEKAKKGIQMLIEKGFIDSDSNRDIASFLFLNNGRLNKKTIGLLLCDPKKTSLLKEFIDLFDFKGLRVDEAIRILLTKFRLPGESQQIERIVEAFSSKYSADQSNDKVELEDKKAGKNGSESMTEDDIIHVQPDADSVFVLSYSIIMLNTDSHNPQVKDHMTFDDYSNNLRGCYNGKDFPRWYLHKIYTSIKVKEIVMPEEHHGNERWFEDAWNNLISSTSVMTEMQRDFTNPISKLAQIDILQYEKAIFSNVRDIILKTLFKIFTVASSDQISLRILDAISKCTFINYYFSFDQSYNDTVLHLGEMTTLAQSSAKAVELDVDSIPLVEIFVEDTGSKISVSNQSIRLGQNFKAQLCTVLYFQIIKEISDPSIVSTRLWNQIVQLILKLFENLLMEPNLPFFTNFHSLLKLPELPLPDPDISIRKAKMSRSLLSTFASYLKGDEEPSEEDIDFSIKAFECVKASHPLSSVFENNQLVSPKMIETLLSSLVIEKTSENSPYFEQELLFLLEISIILISEASYGQEFGALIADHMINISNLDGLSKEAIARLASYKMFLVSRFDNPRDILSDLIEHDFLVKNEIFNTKYYESEWGKQVINDLFTHLNDVKYNERALKNVKFWNFLRILISAKDRQFAVYTFLEKYIQNGDIFVDDGNFMNILSLLDEMSCAGAVGTKWEQNYENSVEDGCEAPESNPYRSIIDLSSRSINITADLLSTVGRSNSALNKNEIIAAIQGLAHQCLNPCDELGMQALQALENILLSRASQLRTEKVAVDNLLETGLLPIFELDEIQDVKMKRITSILSVLSKIFLGQLVEGVTSNETFLRVLNVFNKYVDDPTVERQLQELIISKREIEKE
binding [2]: binds

B4: Pgk1 (protein, UniProt P00560 1-416)
chain: MSLSSKLSVQDLDLKDKRVFIRVDFNVPLDGKKITSNQRIVAALPTIKYVLEHHPRYVVLASHLGRPNGERNEKYSLAPVAKELQSLLGKDVTFLNDCVGPEVEAAVKASAPGSVILLENLRYHIEEEGSRKVDGQKVKASKEDVQKFRHELSSLADVYINDAFGTAHRAHSSMVGFDLPQRAAGFLLEKELKYFGKALENPTRPFLAILGGAKVADKIQLIDNLLDKVDSIIIGGGMAFTFKKVLENTEIGDSIFDKAGAEIVPKLMEKAKAKGVEVVLPVDFIIADAFSADANTKTVTDKEGIPAGWQGLDNGPESRKLFAATVAKAKTIVWNGPPGVFEFEKFAAGTKALLDEVVKSSAAGNTVIIGGGDTATVAKKYGVTDKISHVSTGGGASLELLEGKELPGVAFLSEKK
binding [3]: no binding
